SMILES strings stand for the structures. In all, about 16,000 compounds went through this assay and about 120 (0.75%) were called active. Another 4% or so got no clear call; they are omitted. Calls follow the shape of the dose curve; as a rule, active = well fitted inhibition curve with a large enough effect; inconclusive = small, poorly fitted or top-dose-only effect; inactive = no such curve, though single readings can be large or run the other way. Some of the results follow.

The target in this assay is Rap guanine nucleotide exchange factor 3 (Homo sapiens) (UniProt O95398). Description: Validation qHTS for antagonist of cAMP-regulated guanine nucleotide exchange factor 3 (EPAC1).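 Also: plate controls were DMSO for no effect and ATA control for full effect; nearly all actives have a fitted effect of over 75% in size.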 The following applies: EPAC1 Rap1B-BODIPY-GDP exchange, fluorescence; series mostly up to 150 µM; activity change, negative = inhibition: at the top concentration. In short, it runs like this: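 EPAC1 (100 nM) mixed with 250 nM RAP1B-BODIPY-GDP and 50 uM GDP; compounds in concentration series, 5 min at room temperature. Fluorescence (ex 480/em 540 nm) read every 5 min for 30 min; normalized to ATA control and DMSO.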
Sequence of UniProt O95398 (O95398 whole entry, looked up): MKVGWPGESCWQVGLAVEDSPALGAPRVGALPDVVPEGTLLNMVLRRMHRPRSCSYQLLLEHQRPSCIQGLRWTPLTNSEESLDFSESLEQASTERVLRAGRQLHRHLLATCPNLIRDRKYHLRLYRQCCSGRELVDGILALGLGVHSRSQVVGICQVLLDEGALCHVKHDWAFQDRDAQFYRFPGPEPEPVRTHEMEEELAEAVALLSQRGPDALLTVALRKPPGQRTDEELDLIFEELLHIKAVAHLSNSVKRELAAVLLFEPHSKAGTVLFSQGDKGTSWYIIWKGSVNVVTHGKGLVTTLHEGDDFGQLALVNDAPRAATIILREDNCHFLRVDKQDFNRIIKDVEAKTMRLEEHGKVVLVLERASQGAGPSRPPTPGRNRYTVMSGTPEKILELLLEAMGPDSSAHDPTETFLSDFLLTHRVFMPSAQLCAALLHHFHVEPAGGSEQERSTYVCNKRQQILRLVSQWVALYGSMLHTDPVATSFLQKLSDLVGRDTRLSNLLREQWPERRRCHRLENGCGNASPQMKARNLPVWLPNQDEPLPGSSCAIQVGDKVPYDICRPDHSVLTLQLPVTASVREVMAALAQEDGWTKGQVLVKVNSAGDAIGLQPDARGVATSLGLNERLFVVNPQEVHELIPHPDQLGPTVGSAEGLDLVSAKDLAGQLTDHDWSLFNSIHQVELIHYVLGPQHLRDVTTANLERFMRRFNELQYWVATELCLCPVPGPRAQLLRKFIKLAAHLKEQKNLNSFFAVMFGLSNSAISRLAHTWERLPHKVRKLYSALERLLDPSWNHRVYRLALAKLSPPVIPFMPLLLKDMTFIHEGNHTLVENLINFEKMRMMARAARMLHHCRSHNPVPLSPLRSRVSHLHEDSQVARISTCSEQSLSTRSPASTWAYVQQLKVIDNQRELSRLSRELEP
For the compound `Nc1ncnc2c1nc(Br)n2C1CC(O)C(CO)O1` (configuration not stated), the “activity change, negative = inhibition” value was inactive: 22.2%.
For `Nc1nc(SCc2ccc([N+](=O)[O-])cc2)c2ncn([C@@H]3O[C@H](CO)[C@@H](O)[C@H]3O)c2n1` the value was “inactive”; for `COc1ccc(CCN2CCC(Nc3nc4ccccc4n3Cc3ccc(F)cc3)CC2)cc1`, “inactive”; for `CN(C)CCOC1=Cc2ccccc2Sc2ccc(Cl)cc21`, inactive: 10.2%.
For `COc1ccccc1CN1CC2(CCN(C(=O)c3cc(C(F)(F)F)cc(C(F)(F)F)c3)CC2)C1` the value was inactive: 0.446%; for `CCN(Cc1ccncc1)C(=O)C(CO)c1ccccc1` (configuration not stated), “inactive”.
For `CS(=O)(=O)Nc1cccc(-c2ccc3ncnc(Nc4ccccc4)c3c2)c1`, the “activity change, negative = inhibition” value is inactive: -6.42%.
Take `COc1cccc(Cn2c(=O)c(-c3ccc(F)cc3)nc3cnc(N(C)C)nc32)c1`: the “activity change, negative = inhibition” value was inactive: 0.383%.
Next, `CC(C)NC[C@@H](O)COc1ccc(COCCOC(C)C)cc1`: inactive: 3.56%; `Nc1nc(O)c2ncn([C@H]3CC[C@@H](CO)O3)c2n1`: inactive: 3.36%; `Cn1cccc1C(=O)N1CCC2(CC1)CN(c1cccc(-c3ccccc3)c1)C2`: inactive: -9.23%.
Regarding `COc1ccc(C(=O)N2CCC[C@@]3(CCN(c4ccccc4)C3)C2)cc1`, the “activity change, negative = inhibition” value was inactive: 8.33%.
With `COC(=O)c1cc(CNC(=O)c2cnsn2)cc(NC(=O)c2ccccc2OC)c1`, the “activity change, negative = inhibition” value was inactive: 11.8%.
For `O=c1c(-c2cccs2)nc2cnc(Oc3ccccc3)nc2n1C1CC1` the value was inactive: 6.28%; for `CN(Cc1ccco1)c1ccnc(-c2cccc(NS(C)(=O)=O)c2)n1`, inactive: 16.1%; for `CCOC(=O)C1CCCCN1C(=O)c1cnn(-c2nccc(-c3cc(C)sc3C)n2)c1C1CC1` (configuration not stated), inactive: -24.2%.
Next, `CN1C2CCCC1CC(NC(=O)c1nn(C)c3ccccc13)C2` (configuration not stated): inactive: 7.95% [at 75.8 µM]; `COc1cccc(NC(=O)/C=C\c2ccc(Cl)cc2)c1`: inactive: 10.9%.
For `C=C1C(=C/C=C2\CCC[C@]3(C)[C@@H]([C@H](C)CCCC(C)(C)O)CC[C@@H]23)C[C@@H](O)C[C@@H]1O`, the “activity change, negative = inhibition” value was inactive: -2.48%.
For `C#C[C@@]1(O)CCC2C3CCC4=CC(=O)CCC4C3CC[C@@]21CC` (some centres not stated) the value was inactive: 4.59%.
With `C=C(c1ccc2ccccc2n1)c1cccs1`, the “activity change, negative = inhibition” value was inactive: 15.3%.
For `COc1ccc(CN2CC[C@H]3C=CC[C@@H](C(=O)NC4CCCCC4)[C@H]3C2=O)cc1OC`, the “activity change, negative = inhibition” value was inactive: -9.2%.
For the compound `COCCNc1ncnc2ccc(-c3ccccc3C(F)(F)F)cc12`, the “activity change, negative = inhibition” value was inactive: 17%.
As for `Cc1ccc2nc(SCC(=O)N3CCC4(CC3)CC4C(=O)Nc3ccc(F)c(F)c3)[nH]c2c1` (configuration not stated), the “activity change, negative = inhibition” value was inactive: -18.4%.
Next, `CCCCCCCC/C=C\CCCCCCCC(=O)OC[C@@H](O)COP(=O)(O)O`: inactive: 15.7% [at 15.3 µM]; `COc1ccc(/C=C/C(=O)OCCC(C)C)cc1`: inactive: -6.01%.
Consider `C=C1CC[C@H](O)CC1=C/C=C1\CCC[C@]2(C)[C@@H]([C@H](C)CCCC(C)(C)O)CC[C@@H]12`, for which the “activity change, negative = inhibition” value was inactive: -10.6%.

(Values after PubChem BioAssay AID1645882 (National Center for Advancing Translational Sciences (NCATS), 2021).)
